According to the supplement of paper PMC8728848:
Some of the results follow.

Legend:
Experiment in all cases: glycan array binding signal (z-score within array); higher = stronger binding
Details in all cases: glycan notation: IUPAC condensed, linker removed; mutation: D325N
[1] = target: Gal(b1-3)[Fuc(a1-4)]GlcNAc(b1-3)Gal(b1-4)[Fuc(a1-3)]GlcNAc
How it was run: (§1)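 The Consortium for Functional Glycomics database supplied 3228 glycan arrays, of which those lacking an available protein sequence were dropped. The binding signal, a within-array Z-score, was averaged across arrays of the same protein sequence and across linkers. Negative scores can be read as non-binding.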

[2] = target: Gal(b1-3)[GlcNAc(b1-6)]GalNAc
How it was run: as §1

[3] = target: Gal(b1-3)[Neu5Ac(a2-6)]GalNAc
How it was run: as §1

[4] = target: Gal(b1-3)[Neu5Ac(a2-6)]GlcNAc(b1-6)Gal(b1-4)Glc
How it was run: as §1

[5] = target: Gal(b1-3)[Neu5Ac(b2-6)]GalNAc
How it was run: as §1

[6] = target: Gal(b1-4)GalNAc(a1-3)[Fuc(a1-2)]Gal(b1-4)GlcNAc
How it was run: as §1

[7] = target: Gal(b1-4)GalNAc(b1-3)[Fuc(a1-2)]Gal(b1-4)GlcNAc
How it was run: as §1

[8] = target: Gal(b1-4)Glc
How it was run: as §1

[9] = target: Gal(b1-4)Glc6S
How it was run: as §1

[10] = target: Gal(b1-4)GlcNAc
How it was run: as §1

[11] = target: Gal(b1-4)GlcNAc(a1-6)Gal(b1-4)GlcNAc
How it was run: as §1

[12] = target: Gal(b1-4)GlcNAc(b1-2)Man(a1-3)[Gal(b1-4)GlcNAc(b1-2)Man(a1-6)]Man(b1-4)GlcNAc(b1-4)GlcNAc
How it was run: as §1

[13] = target: Gal(b1-4)GlcNAc(b1-3)Gal(b1-3)GlcNAc
How it was run: as §1

[14] = target: Gal(b1-4)GlcNAc(b1-3)Gal(b1-4)Glc
How it was run: as §1

[15] = target: Gal(b1-4)GlcNAc(b1-3)Gal(b1-4)GlcNAc
How it was run: as §1

[16] = target: Gal(b1-4)GlcNAc(b1-3)Gal(b1-4)GlcNAc(b1-3)Gal(b1-4)GlcNAc
How it was run: as §1

[17] = target: Gal(b1-4)GlcNAc(b1-3)Gal(b1-4)[Fuc(a1-3)]GlcNAc(b1-3)Gal(b1-4)[Fuc(a1-3)]GlcNAc
How it was run: as §1

[18] = target: Gal(b1-4)GlcNAc(b1-3)GalNAc
How it was run: as §1

[19] = target: Gal(b1-4)GlcNAc(b1-3)[Gal(b1-4)GlcNAc(b1-6)]Gal(b1-4)GlcNAc
How it was run: as §1

[20] = target: Gal(b1-4)GlcNAc(b1-3)[GlcNAc(b1-6)]Gal(b1-4)GlcNAc
How it was run: as §1

[21] = target: Gal(b1-4)GlcNAc(b1-6)Gal(b1-4)GlcNAc
How it was run: as §1

[22] = target: Gal(b1-4)GlcNAc(b1-6)Gal(b1-4)GlcNAc(b1-6)GalNAc
How it was run: as §1

[23] = target: Gal(b1-4)GlcNAc(b1-6)GalNAc
How it was run: as §1

[24] = target: Gal(b1-4)GlcNAc(b1-6)[Gal(b1-3)]GalNAc
How it was run: as §1

[25] = target: Gal3S(b1-3)GalNAc
How it was run: as §1

[26] = target: Gal3S(b1-3)GlcNAc
How it was run: as §1

[27] = target: Gal3S(b1-3)[Fuc(a1-4)]GlcNAc
How it was run: as §1

[28] = target: Gal3S(b1-4)Glc
How it was run: as §1

[29] = target: Gal3S(b1-4)Glc6S
How it was run: as §1

[30] = target: Gal3S(b1-4)GlcNAc
How it was run: as §1

[31] = target: Gal3S(b1-4)GlcNAc6S
How it was run: as §1

[32] = target: Gal3S(b1-4)[Fuc(a1-3)]Glc
How it was run: as §1

[33] = target: Gal3S4S(b1-4)GlcNAc
How it was run: as §1

[34] = target: Gal3S6S(b1-4)GlcNAc
How it was run: as §1

[35] = target: Gal3S6S(b1-4)GlcNAc6S
How it was run: as §1

[36] = target: Gal4S(b1-4)GlcNAc
How it was run: as §1

[37] = target: Gal4S6S(b1-4)GlcNAc
How it was run: as §1

[38] = target: Gal6S(b1-4)Glc
How it was run: as §1

[39] = target: Gal6S(b1-4)Glc6S
How it was run: as §1

[40] = target: Gal6S(b1-4)GlcNAc
How it was run: as §1

[41] = target: Gal6S(b1-4)GlcNAc6S
How it was run: as §1

[42] = target: GalNAc(a1-3)Gal
How it was run: as §1

[43] = target: GalNAc(a1-3)GalNAc
How it was run: as §1

[44] = target: GalNAc(b1-3)Gal
How it was run: as §1

[45] = target: GalNAc(b1-3)Gal(a1-4)Gal(b1-4)GlcNAc
How it was run: as §1

[46] = target: GalNAc(b1-3)GalNAc
How it was run: as §1

[47] = target: GalNAc(b1-4)GlcNAc
How it was run: as §1

[48] = target: Glc(a1-4)Glc
How it was run: as §1

[49] = target: Glc(a1-6)Glc(a1-6)Glc
How it was run: as §1

[50] = target: Glc(b1-4)Glc
How it was run: as §1

[51] = target: Glc(b1-6)Glc
How it was run: as §1

[52] = target: GlcA(b1-3)Gal
How it was run: as §1

[53] = target: GlcA(b1-3)GlcNAc
How it was run: as §1

[54] = target: GlcA(b1-6)Gal
How it was run: as §1

[55] = target: GlcNAc(a1-3)Gal(b1-4)GlcNAc
How it was run: as §1

[56] = target: GlcNAc(a1-6)Gal(b1-4)GlcNAc
How it was run: as §1

[57] = target: GlcNAc(b1-2)Gal(b1-3)GalNAc
How it was run: as §1

[58] = target: GlcNAc(b1-2)Man(a1-3)[GlcNAc(b1-2)Man(a1-6)]Man(b1-4)GlcNAc(b1-4)GlcNAc
How it was run: as §1

[59] = target: GlcNAc(b1-3)Gal
How it was run: as §1

[60] = target: GlcNAc(b1-3)Gal(b1-3)GalNAc
How it was run: as §1

[61] = target: GlcNAc(b1-3)Gal(b1-4)Glc
How it was run: as §1

[62] = target: GlcNAc(b1-3)Gal(b1-4)GlcNAc
How it was run: as §1

[63] = target: GlcNAc(b1-3)Gal(b1-4)GlcNAc(b1-3)Gal(b1-4)GlcNAc
How it was run: as §1

[64] = target: GlcNAc(b1-3)GalNAc
How it was run: as §1

[65] = target: GlcNAc(b1-3)Man
How it was run: as §1

[66] = target: GlcNAc(b1-3)[GlcNAc(b1-4)][GlcNAc(b1-6)]GlcNAc
How it was run: as §1

[67] = target: GlcNAc(b1-3)[GlcNAc(b1-6)]Gal(b1-4)GlcNAc
How it was run: as §1

[68] = target: GlcNAc(b1-3)[GlcNAc(b1-6)]GalNAc
How it was run: as §1

[69] = target: GlcNAc(b1-4)Gal(b1-4)GlcNAc
How it was run: as §1

[70] = target: GlcNAc(b1-4)GlcNAc
How it was run: as §1

[71] = target: GlcNAc(b1-4)GlcNAc(b1-4)GlcNAc
How it was run: as §1

[72] = target: GlcNAc(b1-4)GlcNAc(b1-4)GlcNAc(b1-4)GlcNAc(b1-4)GlcNAc
How it was run: as §1

[73] = target: GlcNAc(b1-4)GlcNAc(b1-4)GlcNAc(b1-4)GlcNAc(b1-4)GlcNAc(b1-4)GlcNAc
How it was run: as §1

[74] = target: GlcNAc(b1-4)[GlcNAc(b1-6)]GalNAc
How it was run: as §1

[75] = target: GlcNAc(b1-6)Gal(b1-4)GlcNAc
How it was run: as §1

B1: Surfactant Protein D (Human); Neck + Carbohydrate Recognition Domain (NCRD) (Homo sapiens) (protein)
chain: MLLFLLSALVLLTQPLGYLEAEMKTYSHRTMPSACTLVMCSSVESGLPGRDRDGREGPRGEKGDPGLPGAAGQAGMPGQAGPVGPKGDNGSVGEPGPKGDTGPSGPPGPPGVPGPAGREGALGKQGNIGPQGKPGPKGEAGPKGEVGAPGMQGSAGARGLAGPKGERGVPGERGVPGNTGAAGSAGAMGPQGSPGARGPPGLKGDKGIPGDKGAKGESGLPDVASLRQQVEALQGQVQHLQAAFSQYKKVELFPNGQSVGEKIFKTAQFVKPFTEAQLLCTQAGGQLASPRSAAENAALQQLVVAKNEAAFLSMTDSKTEGKFTYPTGESLVYSNWAPGEPNDNGGSEDCVEIFTNGKWNDRACGEKRLVVCEF
[1]
  glycan array binding signal (z-score): -0.113
[2]
  glycan array binding signal (z-score): -0.142
[3]
  glycan array binding signal (z-score): -0.152
[4]
  glycan array binding signal (z-score): -0.128
[5]
  glycan array binding signal (z-score): -0.139
[6]
  glycan array binding signal (z-score): -0.106
[7]
  glycan array binding signal (z-score): -0.103
[8]
  glycan array binding signal (z-score): -0.135
[9]
  glycan array binding signal (z-score): -0.121
[10]
  glycan array binding signal (z-score): -0.129
[11]
  glycan array binding signal (z-score): -0.123
[12]
  glycan array binding signal (z-score): -0.099
[13]
  glycan array binding signal (z-score): -0.145
[14]
  glycan array binding signal (z-score): -0.124
[15]
  glycan array binding signal (z-score): -0.164
[16]
  glycan array binding signal (z-score): -0.13
[17]
  glycan array binding signal (z-score): -0.105
[18]
  glycan array binding signal (z-score): -0.064
[19]
  glycan array binding signal (z-score): -0.139
[20]
  glycan array binding signal (z-score): -0.139
[21]
  glycan array binding signal (z-score): -0.147
[22]
  glycan array binding signal (z-score): -0.132
[23]
  glycan array binding signal (z-score): -0.138
[24]
  glycan array binding signal (z-score): -0.128
[25]
  glycan array binding signal (z-score): -0.149
[26]
  glycan array binding signal (z-score): -0.149
[27]
  glycan array binding signal (z-score): -0.118
[28]
  glycan array binding signal (z-score): -0.14
[29]
  glycan array binding signal (z-score): -0.151
[30]
  glycan array binding signal (z-score): -0.127
[31]
  glycan array binding signal (z-score): -0.089
[32]
  glycan array binding signal (z-score): -0.152
[33]
  glycan array binding signal (z-score): -0.037
[34]
  glycan array binding signal (z-score): -0.079
[35]
  glycan array binding signal (z-score): -0.121
[36]
  glycan array binding signal (z-score): -0.149
[37]
  glycan array binding signal (z-score): -0.138
[38]
  glycan array binding signal (z-score): -0.105
[39]
  glycan array binding signal (z-score): -0.121
[40]
  glycan array binding signal (z-score): -0.148
[41]
  glycan array binding signal (z-score): -0.146
[42]
  glycan array binding signal (z-score): -0.057
[43]
  glycan array binding signal (z-score): -0.149
[44]
  glycan array binding signal (z-score): -0.13
[45]
  glycan array binding signal (z-score): -0.113
[46]
  glycan array binding signal (z-score): -0.145
[47]
  glycan array binding signal (z-score): -0.143
[48]
  glycan array binding signal (z-score): -0.157
[49]
  glycan array binding signal (z-score): -0.155
[50]
  glycan array binding signal (z-score): -0.151
[51]
  glycan array binding signal (z-score): -0.145
[52]
  glycan array binding signal (z-score): -0.146
[53]
  glycan array binding signal (z-score): -0.132
[54]
  glycan array binding signal (z-score): -0.131
[55]
  glycan array binding signal (z-score): -0.139
[56]
  glycan array binding signal (z-score): -0.143
[57]
  glycan array binding signal (z-score): -0.121
[58]
  glycan array binding signal (z-score): 0.879
[59]
  glycan array binding signal (z-score): -0.146
[60]
  glycan array binding signal (z-score): -0.145
[61]
  glycan array binding signal (z-score): -0.118
[62]
  glycan array binding signal (z-score): -0.139
[63]
  glycan array binding signal (z-score): -0.138
[64]
  glycan array binding signal (z-score): -0.15
[65]
  glycan array binding signal (z-score): -0.144
[66]
  glycan array binding signal (z-score): -0.153
[67]
  glycan array binding signal (z-score): -0.148
[68]
  glycan array binding signal (z-score): -0.107
[69]
  glycan array binding signal (z-score): -0.101
[70]
  glycan array binding signal (z-score): -0.143
[71]
  glycan array binding signal (z-score): -0.134
[72]
  glycan array binding signal (z-score): -0.126
[73]
  glycan array binding signal (z-score): -0.109
[74]
  glycan array binding signal (z-score): -0.131
[75]
  glycan array binding signal (z-score): -0.138
